# Data from PubChem BioAssay AID652104 (National Center for Advancing Translational Sciences (NCATS), 2013).
# In all, about 410,000 compounds went through this assay and about 7,200 (1.8%) were called active. Inconclusive results, whose numbers are uncertain, are shown with a selection of clear calls. The call rests on the fitted dose curve; in most records, active means well fitted activation curve with a large enough effect; inconclusive means small, poorly fitted or top-dose-only effect, or another doubt; inactive means no such curve, though single readings can be large or run the other way. Potencies of inconclusive entries are left out as doubtful fits.
# Test: qHTS of TDP-43 Inhibitors; further: nearly all actives have a fitted effect of over 50% in size; on growth rescue (activation): % of control where 0% means no effect
# Details: TDP-43 expressing yeast growth rescue, BacTiter-Glo, 24 h; growth rescue (activation): at 46.1 µM (top of the series) unless noted
# Method in brief: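 Cell-based yeast growth screen: TDP-43 expression induced in galactose, inoculum OD600=0.02 after raffinose pregrowth to mid-log. Read-out BacTiter-Glo luminescence at 24 hr, 30 deg C; inhibition of toxicity seen as signal increase.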
# Potency means the concentration at half of the fitted maximal effect; tags describe the fitted curve by direction and shape.
SMILES,Potency,growth rescue (activation)
O=C(COc1ccc(F)cc1Br)NCC1COc2ccccc2O1 (stereo not drawn),active: 22.4 µM,–
COc1cccc(CNC(=O)c2csc3c2CCCC3)c1,"inconclusive [activator, single point]",–
O=C(/C(C=Nc1cc2c(oc1=O)CCCC2=O)=C(\O)c1ccccc1)c1ccccc1,"inconclusive [activator, single point]",–
Cc1ccc(S(=O)(=O)NC(=O)c2cccc(Br)c2)cc1,"inconclusive [activator, partial curve]",–
N#C/C(=C\c1ccccc1Br)C(=O)NC1CC1,–,inconclusive: -93.3% [activator]
COc1ccc2[nH]c(=O)c(CN(C(=O)NC3CCCCC3)C3CCCC3)cc2c1,–,inactive: 0%
CCCCC(=O)NC(c1ccc([N+](=O)[O-])cc1)c1c(O)ccc2ccccc12 (stereo not drawn),"inconclusive [activator, partial curve, poor fit]",–
Cc1ccc(NC(=O)c2ccc(-c3nn(C)c(=O)c4ccccc34)cc2)c(C)c1,"inconclusive [activator, single point]",–
CCC(=O)Nc1ccccc1Sc1ncnc2scc(-c3ccccc3)c12,"inconclusive [activator, partial curve]",–
CCOc1ncnc2c1sc1nc(C)cc(C)c12,"inconclusive [activator, partial curve]",–
Nc1cc2nsnc2cc1Br,active: 12.6 µM,–
COc1ccccc1Cn1c(CNS(=O)(=O)c2c(C)cc(C)cc2C)nc2cccnc21,–,inactive: 8.77%
Cc1ccc(C2=NN(Cc3nnc(-c4ccccc4)o3)C(=O)SC2)cc1,active: 17.8 µM,–
CCOCCn1ccc2c(OCC(=O)Nc3cc(C(F)(F)F)ccc3Cl)cccc2c1=O,"inconclusive [activator, full curve]",–
CC(Sc1nc2ccccc2s1)C(=O)Nc1nnc(C(C)C)s1 (stereo not drawn),active: 25.1 µM,–
O=C(Nc1ccon1)c1sc2cc(F)ccc2c1Cl,"inconclusive [activator, full curve]",–
C=CCOC(=O)/C=C/C(=O)NC(N)=O,"inconclusive [activator, partial curve]",–
Nc1cc2c(cc1Br)[nH]c(=O)c1ccccc12,"inconclusive [activator, partial curve]",–
CCOC(=O)Cn1nc(N2CCN(c3ccc(F)cc3)CC2)ccc1=O,–,inactive: 25.5%
COc1ccc(-c2nc(C)c(CCNC(=O)c3cccc(C)c3)s2)cc1OC,active: 22.4 µM,–
COc1nc(NC2CCCCC2)nc(N2CCCCCC2)n1,"inconclusive [activator, single point]",–
COc1ccc(C2NC(=O)N(C)C3=C2C(=O)N(c2ccccc2)C3)cc1 (stereo not drawn),–,inactive: 8.42%
CC(C(=O)NCC1CCCCC1)N1CCN(S(=O)(=O)/C=C/c2ccccc2)CC1 (stereo not drawn),"inconclusive [activator, full curve]",–
Cc1ccc(C)c(OCCC(=O)NNC(=O)c2cc(C)oc2C)c1,"inconclusive [activator, partial curve, poor fit]",–
COCCNC(=O)C(=O)Nc1ccc2nc3n(c(=O)c2c1)CCCCC3,"inconclusive [activator, full curve, poor fit]",–

SMILES,Potency,growth rescue (activation)
C=Cc1ccc(Cn2c(C(=O)O)c(CNCc3cc(OC)ccc3OC)c3ccc(C)cc32)cc1,–,inactive: 4.17%
O=C(COc1ccccc1F)NC12CC3CC(CC(C3)C1)C2,"inconclusive [activator, single point]",–
COc1ccc(Cl)cc1NC(=O)COC(=O)c1cc(C)oc1C,"inconclusive [activator, full curve]",–
C=CCNc1ncnc2c1cnn2-c1ccc(OC)cc1,"inconclusive [activator, single point]",–
Cc1ccccc1C(=O)NNC(=S)NC(=O)c1ccccc1,"inconclusive [activator, partial curve]",–
O=C(NCC1CCCC(CNC(=O)N2CCc3ccccc32)C1)N1CCc2ccccc21 (stereo not drawn),"inconclusive [activator, single point]",–
CCCCc1nc(N)c(C#N)c(-c2ccco2)c1CCC,"inconclusive [activator, single point]",–
Cc1cc(C(C)(C)C)ccc1OCCOCCN1CCCC1,–,inactive: -0.323%
CC(=O)NC(C)(c1ccccc1)c1nc(-c2csc3ccccc23)cs1 (stereo not drawn),active: 35.5 µM,–
Cc1ccc(CNC(=O)COC(=O)CCC(=O)c2cccs2)cc1,"inconclusive [activator, partial curve]",–
C=CCn1c(Oc2cc(C)ccc2C)nc2c1c(=O)n(C)c(=O)n2C,"inconclusive [activator, single point]",–
Cc1ccc(NC(=O)COc2ccccc2)cc1Cl,"inconclusive [activator, single point]",–
O=C(CSc1nc2nccnc2c(=O)n1CCc1c[nH]c2ccccc12)Nc1ccccc1F,–,inactive: 20.8%
CCN(CC)c1nc(-c2ccc(C(C)(C)C)cc2)nc2ccccc12,–,inactive: 11%
CCS(=O)(=O)CCSc1nc2ccccc2o1,–,inactive: -19.9%
O=C(N/N=C/c1cccc(Oc2ccccc2)c1)c1cc[n+]([O-])cc1,–,inactive: -28.2% [at 0.397 µM]
COc1ccc(NC(=O)COc2cccc3c2OC(C)(C)C3)c(OC)c1,"inconclusive [activator, partial curve]",–
COc1ccc(/C=N/Nc2nnc(-c3ccccc3)c(=O)[nH]2)cc1,–,inactive: 0%
COc1ccc(OC)c(NC2=C(c3ccccc3)C(=O)c3ccccc32)c1,"inconclusive [activator, single point]",–
COc1ccc(N2CCN(C(=O)c3cc4c(-c5ccccc5F)nn(C)c4s3)CC2)cc1,active: 20 µM,–
COc1ccccc1NS(=O)(=O)c1cccc(NC(=O)NC2CCCCC2)c1,–,inactive: 9.64%
NNC(=O)c1[nH]c2ccc([N+](=O)[O-])cc2c1-c1ccccc1,–,inactive: 7.24%
CCOc1cccc(CN2CCC(Oc3ccc(C(=O)N4CCCC4)cc3)CC2)c1O,–,inactive: 7.66%
Cc1cccc(C2=NNC(=O)C(c3ccc(Cl)cc3)C2)c1 (stereo not drawn),"inconclusive [activator, single point]",–
COC[C@@H]1CCCN1c1ccc2c(c1)O[C@@H](COCc1ccccc1)CN([C@H](C)c1ccccc1)S2(=O)=O,–,inactive: 13%

SMILES,Potency,growth rescue (activation)
Cc1csc(SCC(=O)Nc2cccc(C)c2C)n1,"inconclusive [activator, single point]",–
Brc1ccc(-c2nnc3sc(CN4CCC5(CC4)OCCO5)cn23)cc1,–,inactive: -21.3%
Cc1ccc(Cc2nc3ccccc3nc2SCC(=O)N2CCc3ccccc32)cc1,–,inactive: 7.97%
CC(C)[C@H](NS(=O)(=O)c1ccccc1)C(=O)OCc1cc([N+](=O)[O-])cc2c1OCOC2,–,inactive: -11.4%
O=C(NC(=S)NCCc1ccccc1)c1cccc(Cl)c1,"inconclusive [activator, single point]",–
Cc1ccc(C2CC(=O)N(Cc3ccccc3F)c3c2c(C)nn3-c2nc(C)cc(C)n2)cc1 (stereo not drawn),–,inactive: 23.1% [at 9.22 µM]
Cc1cccc(N2CCN(C(=O)c3c(-c4ccccc4)noc3C)CC2)c1C,"inconclusive [activator, single point]",–
O=[N+]([O-])c1ccc(N/N=C2\CC3CC=CC23)cc1 (stereo not drawn),–,inactive: 21.5%
O=C(Nc1ccc(Br)c(Cl)c1)c1ccco1,"inconclusive [activator, partial curve]",–
COc1ccccc1C(=O)NCCSCc1ccccc1Cl,active: 12.6 µM,–
Cc1ccc(S(=O)(=O)N2CCN(C(=O)C3CCN(c4ncnc5sc(C)c(C)c45)CC3)CC2)c(C)c1,"inconclusive [activator, partial curve]",–
O=C(COC(=O)Cc1ccsc1)Nc1ccc(Cl)cc1F,"inconclusive [activator, partial curve]",–
O=C(CSc1ccc(-c2ccccn2)nn1)Nc1ccc(F)c(F)c1,active: 12.6 µM,–
COc1ccc(NC(=O)c2ccc(-c3ccc(C)c4ccccc34)o2)cc1,"inconclusive [activator, partial curve]",–
CSc1cccc(NC(=O)COc2ccccc2)c1,"inconclusive [activator, single point]",–
Cc1nn(-c2ccc(F)cc2)c(-n2cccc2)c1C(=O)N1CCN(c2ccc(F)cc2)CC1,"inconclusive [activator, single point]",–
CC1(c2ccccc2)CC(C)(C)N(C(=O)C2CCCO2)c2ccccc21 (stereo not drawn),"inconclusive [activator, single point]",–
CC1C(=O)N(Cc2cn(Cc3ccco3)nn2)CCS(=O)(=O)N1Cc1ccc(-c2ccccc2Cl)cc1 (stereo not drawn),"inconclusive [activator, partial curve]",–
COc1ccc(NC(=O)COc2ccccc2C)cc1S(=O)(=O)N1CCCCC1,"inconclusive [activator, partial curve]",–
Cc1onc(-c2ccccc2Cl)c1C(=O)OCC(=O)N1CCCc2ccccc21,"inconclusive [activator, single point]",–
Cc1ccc(C)c(NC(=O)CCC(=O)OC(C(=O)c2ccccc2)c2ccccc2)c1 (stereo not drawn),"inconclusive [activator, partial curve]",–
CCCCn1c(N)c(N(CCC(C)C)C(=O)c2ccccc2-n2cnnn2)c(=O)[nH]c1=O,–,inactive: -2.18%
O=[N+]([O-])c1ccc2c3n([n+]([O-])c2c1)CCN=C3c1ccc(Cl)cc1,"inconclusive [activator, single point]",–
